In the supplement of paper PMC3334620:
In all, about 33,000 sequences were measured (“E-score (-0.5 to 0.5)”: median about -0.04, highest 2% from about 0.36 on). This is one part of the list.

Target: T1, Hmlalpha2 (UniProt P0CY09)
T1 sequence: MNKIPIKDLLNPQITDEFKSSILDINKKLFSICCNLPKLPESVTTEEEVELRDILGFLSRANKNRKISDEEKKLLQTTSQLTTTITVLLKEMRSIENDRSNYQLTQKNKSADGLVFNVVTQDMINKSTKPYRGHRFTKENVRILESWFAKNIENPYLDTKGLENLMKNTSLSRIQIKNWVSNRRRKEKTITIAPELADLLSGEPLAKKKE
Test: PBM E-score (8-mer binding enrichment) (E-score (-0.5 to 0.5)); higher = stronger / more preferred TF binding; most listed sequences are background and not binding sites
Conditions: protein concentration: 200 nM; construct: GST-full length
In short: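 Yeast transcription factors carrying a GST tag, as full-length proteins or DNA-binding domains, were produced by PURExpress in vitro transcription/translation. About 100-200 nM protein was applied to universal all-10-mer Agilent arrays, double-stranded by primer extension on fresh or once-stripped slides. Bound protein was detected with fluorescent anti-GST, and scans were normalised with masliner. The Universal PBM Analysis Suite gave each ungapped eight-base word, pooled with its reverse complement, an E-score, a modified Wilcoxon-Mann-Whitney statistic.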

Going from GGTACGTA to CAAGGCAA, the “PBM E-score” value falls from 0.199 to -0.0303.

Compared with GCCTTCGC, CGTGCGAA is higher in “PBM E-score” value: -0.303 for the first, 0.00678 for the second.

Compared with CCATATCC, AGGGCGAT is higher in “PBM E-score” value: -0.3 for the first, -0.047 for the second.

Compared with AACTTCTT, CATGTGAC is higher in “PBM E-score” value: 0.163 for the first, 0.19 for the second.

First: AACATAGA
Second: ACCGCAGG
The “PBM E-score” value of the first is higher: 0.284 for the first, -0.213 for the second.

First: CGCCCTCA
Second: CGCAAGCA
The “PBM E-score” value of the first is lower: -0.218 for the first, -0.0503 for the second.

Compared with ACATGTAT, CTTAACCA is lower in “PBM E-score” value: 0.454 for the first, 0.0416 for the second.

First: ATGAAGGC
Second: AGATGACC
The “PBM E-score” value of the first is higher: -0.0496 for the first, -0.174 for the second.

Compared with TAAACGAA, ACGCGAAT is higher in “PBM E-score” value: 0.165 for the first, 0.272 for the second.

First: GGACTAGA
Second: CACGATGG
The “PBM E-score” value of the first is lower: -0.227 for the first, -0.0802 for the second.

Going from AGTCGGTG to GCACCTAA, the “PBM E-score” value rises from -0.213 to -0.0209.

Compared with AATGCGAG, TATTAACA is higher in “PBM E-score” value: 0.105 for the first, 0.428 for the second.

Going from AGAAGTGG to AACAATCT, the “PBM E-score” value rises from -0.351 to 0.179.

Going from CGCGTCGC to ACCATTAT, the “PBM E-score” value falls from 0.0806 to -0.111.

First: AAGGTAAA
Second: TGACATAA
The “PBM E-score” value of the first is lower: 0.215 for the first, 0.319 for the second.

Going from AGCACGAC to AATTTTGT, the “PBM E-score” value rises from -0.036 to 0.101.

Compared with ATCCTGGC, AATTCAGC is higher in “PBM E-score” value: -0.245 for the first, -0.11 for the second.

Compared with CACAGTCC, AGCGGCTG is lower in “PBM E-score” value: -0.0662 for the first, -0.16 for the second.

Compared with GCACTAAC, GAAAGGGA is lower in “PBM E-score” value: -0.0951 for the first, -0.156 for the second.

First: GAACTCAA
Second: CTGTGCTC
The “PBM E-score” value of the first is lower: -0.0818 for the first, 0.0747 for the second.

Going from AGCGGTTG to ACCAACGG, the “PBM E-score” value rises from -0.0521 to 0.106.

Compared with CGGCAGAC, ATGGTGCC is higher in “PBM E-score” value: -0.268 for the first, -0.225 for the second.

First: AGCAGGGG
Second: AGTATGCG
The “PBM E-score” value of the first is lower: -0.309 for the first, 0.0952 for the second.

First: CCCCGCCA
Second: AGGCGTCG
The “PBM E-score” value of the first is lower: -0.196 for the first, -0.0335 for the second.

First: CAGTTATG
Second: AGACTTAT
The “PBM E-score” value of the first is higher: 0.0317 for the first, -0.00401 for the second.

Compared with AAATAATA, AACGTGCT is lower in “PBM E-score” value: 0.168 for the first, 0.138 for the second.

Compared with GCACCCGA, GGACTTTA is higher in “PBM E-score” value: -0.275 for the first, -0.0551 for the second.

Compared with TGTGCTAA, AACTCTCG is lower in “PBM E-score” value: 0.217 for the first, 0.00226 for the second.

Going from AACCTTAG to GTGACAAA, the “PBM E-score” value rises from -0.121 to -0.0398.

Compared with GGACCCGA, TAAATACA is higher in “PBM E-score” value: -0.33 for the first, 0.434 for the second.

Compared with TCGTGAAA, CGCGCAGA is higher in “PBM E-score” value: -0.0247 for the first, -0.00778 for the second.

First: ATGGTGGG
Second: TAATGAAA
The “PBM E-score” value of the first is lower: -0.308 for the first, 0.229 for the second.

Going from TACTTACA to CAGGCGAG, the “PBM E-score” value falls from 0.379 to -0.208.

First: AGGACATC
Second: AACTCCTC
The “PBM E-score” value of the first is higher: -0.0672 for the first, -0.176 for the second.

Compared with GCGGCATA, GTTCAAGA is lower in “PBM E-score” value: 0.0326 for the first, 0.0155 for the second.

Compared with ATCGGAAA, GCCTACCC is lower in “PBM E-score” value: -0.0714 for the first, -0.204 for the second.

First: CCGCCGTC
Second: GCCCTACC
The “PBM E-score” value of the first is lower: -0.207 for the first, -0.203 for the second.

First: ATGGAGCA
Second: TGACAGCA
The “PBM E-score” value of the first is lower: 0.0185 for the first, 0.181 for the second.

First: ACGACGTG
Second: CACACTAG
The “PBM E-score” value of the first is higher: 0.287 for the first, 0.00781 for the second.

First: ACGAATGA
Second: GGCTACAA
The “PBM E-score” value of the first is higher: 0.0688 for the first, 0.00252 for the second.

Compared with CGACTTGA, ACCAGTGA is lower in “PBM E-score” value: -0.0293 for the first, -0.0562 for the second.

Going from GAATTGAA to CTAGCCTC, the “PBM E-score” value falls from 0.0239 to -0.232.

First: AATCGGAC
Second: CCACTGTA
The “PBM E-score” value of the first is lower: -0.131 for the first, -0.0906 for the second.
